Results on 86 sequences are retold here after the supplement of paper PMC3334620.

The full ranking holds about 33,000 sequences; the median of “E-score (-0.5 to 0.5)” is about -0.043, and the highest 2% start at about 0.37. The list shows a part of the results.

The test addresses T1, Upc2 (UniProt Q12151).
T1 sequence: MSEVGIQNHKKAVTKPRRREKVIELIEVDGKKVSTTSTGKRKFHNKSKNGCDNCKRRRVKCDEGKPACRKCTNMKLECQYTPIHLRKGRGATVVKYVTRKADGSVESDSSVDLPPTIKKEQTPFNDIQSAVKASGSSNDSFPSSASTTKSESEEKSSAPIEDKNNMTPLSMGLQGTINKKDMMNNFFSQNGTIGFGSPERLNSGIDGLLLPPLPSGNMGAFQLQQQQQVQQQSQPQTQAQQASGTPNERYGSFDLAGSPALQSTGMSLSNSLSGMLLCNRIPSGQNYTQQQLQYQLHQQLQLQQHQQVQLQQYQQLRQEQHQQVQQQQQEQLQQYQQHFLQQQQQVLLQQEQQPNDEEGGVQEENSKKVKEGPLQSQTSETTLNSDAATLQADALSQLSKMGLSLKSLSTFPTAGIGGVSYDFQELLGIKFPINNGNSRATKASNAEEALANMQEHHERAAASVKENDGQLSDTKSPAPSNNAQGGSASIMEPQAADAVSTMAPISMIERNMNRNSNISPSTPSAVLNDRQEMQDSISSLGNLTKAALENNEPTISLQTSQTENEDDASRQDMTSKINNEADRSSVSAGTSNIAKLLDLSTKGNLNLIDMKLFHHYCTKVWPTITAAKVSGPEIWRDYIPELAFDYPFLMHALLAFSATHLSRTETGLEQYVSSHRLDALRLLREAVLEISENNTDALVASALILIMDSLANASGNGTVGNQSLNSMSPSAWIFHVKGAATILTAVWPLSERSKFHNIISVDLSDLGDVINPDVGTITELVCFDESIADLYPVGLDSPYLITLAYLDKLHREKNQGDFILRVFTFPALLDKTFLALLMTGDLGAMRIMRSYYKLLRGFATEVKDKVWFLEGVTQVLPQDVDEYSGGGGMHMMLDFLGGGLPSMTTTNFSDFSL
Briefly: PBM E-score (8-mer binding enrichment) (E-score (-0.5 to 0.5)); higher = stronger / more preferred TF binding; most listed sequences are background and not binding sites. Conditions: protein concentration: 200 nM; construct: GST-full length. Put shortly: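 Bound GST-tagged yeast transcription factors, applied at about 100-200 nM to double-stranded universal all-10-mer Agilent arrays, were detected with fluorescent anti-GST. Scans were normalised with masliner. A modified Wilcoxon-Mann-Whitney statistic, the E-score, was assigned to each ungapped eight-base word pooled with its reverse complement by the Universal PBM Analysis Suite.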
On to CCCCAAAC, for which the “PBM E-score” value came to 0.114.
The same measure for ACTCGAAG: -0.258; for CCCTCTCA: -0.355; for CCCGAGTA: -0.0661.
Consider ACCCCCAT, for which the “PBM E-score” value was -0.139.
ATATGTCC: the “PBM E-score” value is -0.00922.
The same measure for CTTCCTAA: -0.0703.
CCGCACTA: the “PBM E-score” value is -0.0176.
As for CGTGGGAG, the figure is -0.087; as for CCGAACCC, -0.0569; as for TATACAAA, 0.143.
With GTCGACAA, the “PBM E-score” value was -0.111.
The same measure for CCAATGAG: -0.14; for AGCTGTCG: 0.22; for ACAAGTTC: 0.00422.
As for ACCGAGAG, the figure is 0.142.
As for AACGGACC, the figure is 0.254.
For CCGAAGAG, the “PBM E-score” value stood at 0.09.
The same measure for GGGCGTGA: -0.0657.
With GCCGCTTA, the “PBM E-score” value was found to be 0.161.
In the case of AGCCAGAT, the “PBM E-score” value is -0.175.
The same measure for GGAACTAA: 0.146; for AATTACGC: -0.00238; for CTGACGGC: -0.214.
For AGGCAAAA, the “PBM E-score” value is -0.178.
Turning to ATCACAGA, the “PBM E-score” value was -0.155.
As for TCACGTCA, the figure is -0.0623; as for TTTGCAAA, 0.11.
GTCTAGCA: the “PBM E-score” value was -0.148.
On to AGTGGGGC, for which the “PBM E-score” value was -0.283.
As for GAAGTGCA, the figure is -0.153; as for AAGATAAT, 0.0263.
As for GCGGTCAA, the “PBM E-score” value was -0.0468.
As for CCGCGGTC, the figure is -0.0616; as for GCCCTAGC, -0.328.
As for CATATTTA, the figure is 0.0403.
As to TAAAGTGA, the “PBM E-score” value was 0.0674.
For the sequence ACGGTAAA, the “PBM E-score” value is 0.207.
As to ACTCCAAG, the “PBM E-score” value was -0.152.
Turning to ACCCTTGA, the “PBM E-score” value is -0.179.
As for ACAATGCG, the figure is -0.0374; as for ACAGTGTA, -0.07; as for GAGTTGCC, -0.0855.
As for CCTATGAG, the figure is -0.28; as for AAGACGTC, 0.0636; as for AGATGACG, 0.0468.
As for AGAGCGAC, the figure is 0.11.
Regarding AAAAACGC, the “PBM E-score” value was 0.0029.
Take ACCTGCAG: the “PBM E-score” value was -0.0741.
Regarding AACTGTCA, the “PBM E-score” value was -0.0819.
The same measure for AGTTGCGA: 0.0264; for CATCTCGC: 0.131; for AGCTAGTC: 0.0126.
As to CCCTCGAG, the “PBM E-score” value is -0.314.
Turning to AGAAGCAC, the “PBM E-score” value is -0.126.
The same measure for ATCTAACG: 0.117; for GGTGCTCA: -0.0527; for CGGACCGC: -0.0362.
The same measure for AATCTAGA: -0.162.
The same measure for ACCTAAGC: 0.125; for CGGATACC: 0.0516.
As to AGATCAGA, the “PBM E-score” value was -0.147.
CGTTCTCC: the “PBM E-score” value amounted to 0.127.
As for AGTAGGAC, the figure is -0.231.
As for TGCCACCA, the figure is -0.275.
As for ACGTTAAG, the figure is 0.245; as for ACTGATAG, -0.1; as for CAACTAAG, -0.0507.
As to GCTGCGCC, the “PBM E-score” value is -0.253.
Consider TTACGTAA, for which the “PBM E-score” value came out at 0.246.
The same measure for AGCCCTTC: -0.211; for CAGCTGCA: -0.347.
For the sequence CAAGTCTC, the “PBM E-score” value was -0.046.
As for ACGTCCAC, the figure is 0.0192; as for GAACCAAA, -0.0318.
As for AGCATAAA, the figure is -0.0777; as for AGCAGTCG, 0.102.
For AAAGGTAT, the “PBM E-score” value was found to be 0.0203.
Turning to AGCCACCC, the “PBM E-score” value is -0.128.
The same measure for ACCGAAAT: 0.141; for AGCCGTAC: 0.346; for CGAGCATC: 0.166.
For AGAACGAA, the “PBM E-score” value is 0.376.
As for AGCCGACT, the figure is -0.0249; as for TCTGGGCA, -0.31.
Take ACAAACAG: the “PBM E-score” value is -0.0644.
